Measurements from the RNAGym collection of RNA variant scans (doi:10.7554/elife.90254).
Read counts are not given, so values of variants with three or more changes are uncertain.

B1: LINE1-mini (parent)
chain: GGCAGAGCUCAACACAGCGUGGCAAAGUGGCUGUGGCUAGACUGCC

Variants of: B1
Assay: self-cleavage, relative activity (ratio to wild type); higher = more cleavage; in vitro, sequencing; the parent is a self-cleaving ribozyme

Variant	self-cleavage
G7A U32C U34C A41G	0.13
A6U U9G A12U U28C G30U	0.03
G5U C15A A16U A25U	0.01
C3A A11C A16U	0.02
G1C A6C C15A A39G	0.04
U9G C15U U32A	0.02
A25C U28C G36C	0.01
G1A G2U C13U U38C	0.09
G2U A26U G27A C37G U38A	0.01
C15A G22U G35U	0.05
A4G G5U C10A C15A G40A	0.02
U9C G33A G36U	0.05
C18A G36U U38A	0.06
A6C C15U G22A A24U	1.77
A4U G27A G33A G40A	0.07
A6C A14C C45G	0.05
C3G G7A C15G	0.31
G5U U9A A26U G35C	0.06
C3G A4C G7A C8A U34C	0.35
C10G G22U G33A	0.08
G2U G5U G19A A39G	0.1
U28G A39C G40C	0.02
A14C G27C G36C C42G	0.04
A11U A24C C42U	0.07

Variant	self-cleavage
A4C C18U C37U	0.19
G2A C3U A14C C15U G19A A26U G30A A39C	0.21
C10U A12U C45A C46G	0.05
A24G U28C A39U C42A	0.1
G1A G33C A41U C46G	0.04
G2C A12G G33U	0.07
C3A A4C A12G A24C G35A C37U A41C	0.06
A26C G30A U38G	0.03
C8G U32G G40U C45A	0.03
G17U G19U U38C	0.07
G5U A11U C13U A26U	0.05
A6C G7A C10U G17C G35C	0.02
U28G G30A G36C	0.02
C3G G7U U20A G27C	0.32
C8U A14U U28A C37A	0.2
A11G G19C A26U	0.02
U20G G29A G36C	0.08
C3A G35C G36U C46U	0.45
A12C A24C A39G C42A	0.01
A11C C15U U20A G27A A39G	0.01
G1U A26C G30A A41C	0.02
G7A A11C C45G	0.02
C3G A6C G40C	0.07
G5A G35U C46A	0.03

Variant	self-cleavage
G7C C8U C13A A16C C46G	0.26
G2U A4U U28G G40A	0.13
G7A A14U U20C	1.95
G5C U20G A25U G35A G44U	0.01
G7A C10U C18G G27U C45G	0.06
G5C A6U C15G A26C U43C	0
C15A U28C G33A	0.25
G7U C18A A26U U28G G36C C46A	0
G7C C15G G29U	0.07
G17C C23U C42G	0.02
C18A G21U A26C	0.29
A4U A6G G17C G19U C42A	0.35
G7C C15G G19U C45U	0.08
C13U U20G A26U G35U	0.1
G1A G30A C37G	0.05
G2A C10A G17C U20A G21U G33A	0.11
A26C C37A U43G	0.04
A11U C37G U38C C45A	0.02
C3G C10A A11U A24U C31A	0.02
C3A A4G C13A G21U	1.38
G17U G21A C23G U28C C45G	0
G2A G7A C8G G40A	0.2
A4U U32C C46U	0.03
C3A G5U G19C G22A A26U G27C	0.02

Variant	self-cleavage
A4U C10G U20C U38C	0.01
C18A C37G U43G	0
A16C U20A C42A	0.04
G7U A12G A14U C31U	0.02
G1C U28G C45A C46U	0.01
G2A C13A U38A	0.42
C10A U28A G30C A41G	0.01
G19C G21U A24C G33U	0.1
A4C G5C C8U U32G	0.12
A12C C13A A25U U38G	0.01
A11C A12C A16G	0.02
C3A C10A G19U U28G	0.07
G2C C10A C15U G30C	0.04
G2A C3A A11C U32A U38A	0.05
G7A G29U C46U	0.08
C3A C10U A24U G29C U32C U38A	0.02
G17C A24C A39G G44A C45A	0.03
C3A C10G G29U	0.08
C3U C15G G40U C42A	0.06
A16G C37G U43G	0
C8A C13U C18A A41C	0.17
G5C G7C C37A A39G C46U	0.01
G1U G2U G22A G30U G35C	0.05
C3G C8U C23G A24U	0.35

Variant	self-cleavage
C10A G30U A39G	0.01
A16U A25C G29A G35U U38C	0.02
U9C A14U A41U	0.02
A6C A14U U20C U38C	0.02
G2U A14G G30C U38G C42G	0.03
C15U G33U A39U A41U	0.13
U34A C37A C42A	0.01
G19C U20A G21C U34G	0.11
A4G G7A C18A G27U C31U G44U C45G	0.07
A12U C18G U20C U32C	0.04
A6G C23U G27C A41G C45A	0.14
A25C G27A U34C U38A	0.04
G21U G36U C45A	0.23
A12C U32A G35U C42G	0.02
C10A C15A G19A U28C U38A	0.03
C23A C31G G36A A39G	0.02
C10U A11G A14G	0
G17A A26C U28A G30U A41C	0.01
C8A A39G G40C C42U	0.08
C13A G19U C23G C37U C42U	0.01
U9C U20C G35U	0
C18G A24C G29C	0.08
A12U G22U G29U	0.43
G2A A11C C15A C18A U38G	0.02

Variant	self-cleavage
G7U C10A A11G G36C G40A	0
G2A G5U C18A G21C	0.24
A11C A12C G17U G33U	0.05
C10A A11G C45U	0.01
A11U C13G A25U G44A	0.01
G7C C13U C18A	0.01
A4G C10A C13U C23A	0.01
G29U G40A U43A	0.1
G1C A4G U28A	0.1
C3A U9C C13G	0.05
G21A C23U A25G U34G	0.2
C3U A4G A6U G30A	1.34
G17U G19U U32A	0.04
C13U A14U C37G	0.01
G22A C31A C45G	0.14
C3U G17A C18U G33C C46U	0.02
G21U A24U C37G A41U C46A	0.02
C3A G21A C37A U38C	0.14
G2C C8A G17A G27C A39U	0.06
G1C C10A C18A G19A U34C G35U G44A	0.01
C8U G17C C42U U43A	0.23
C3G G7U C13U A14C G33C	0.06
C15A G30U G44A	0.07
A6C G7U U32G	0.04

Variant	self-cleavage
A14U G22C A26C G30C C37G	0.13
C13U U38G C46A	0.03
G2A C10U U38A	0.08
G2U C3A G30U G36A	0.15
C8U U9A C13U A14U G19A U28A U32C C46G	0.46
A6U G17A G40C C42G	0.12
G1U G36C G40C	0.06
C15U U28C G33A	0.59
A4G A26U G27U	0.57
U20G G33C C37U G40U U43A	0
A24G G27C G30U	1.67
C3A C31A G33C G40U C42A	0.15
G2U G21U G33C U34G	0
U9A A12U G17C A26C	0.06
G1U G27A A39G A41C C46G	0
C3G A4G G19U G22U C23U	0.11
A26C G35A G36C	0.04
C3G U28C C31A	0.2
A4G G7C G19A C46U	0.1
A4U G17U U28C U34G G36C	0.06
A14C G22U G33C	0.07
G5C A11G G33U G40U	0.01
C3U G27C G29A	0.08
